Results as given in PubChem BioAssay AID540317 (National Center for Advancing Translational Sciences (NCATS), 2011).
Screen size: about 390,000 compounds; about 2,200 (0.56%) were called active. Inconclusive results, whose numbers are uncertain, are shown with a selection of clear calls. The call rests on the fitted dose curve; in most records, active means well fitted inhibition curve with a large enough effect; inconclusive means small, poorly fitted or top-dose-only effect; inactive means no such curve, though single readings can be large or run the other way. Where the call is inconclusive, the potency comes from a doubtful curve fit.

Target: Chromobox protein homolog 1 (Homo sapiens) (UniProt P83916)
UniProt P83916, sequence (P83916 whole entry, looked up): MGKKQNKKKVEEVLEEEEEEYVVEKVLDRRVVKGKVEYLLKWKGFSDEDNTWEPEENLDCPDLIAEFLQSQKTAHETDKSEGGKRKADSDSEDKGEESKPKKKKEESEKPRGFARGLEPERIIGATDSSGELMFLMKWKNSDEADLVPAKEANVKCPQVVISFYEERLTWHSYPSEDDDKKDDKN
Assay: HTS for Inhibitors of HP1-beta Chromodomain Interactions with Methylated Histone Tails; further: nearly all actives have a fitted effect of over 70% in size
Conditions: AlphaScreen HP1-beta / biotin-H3K9me3 peptide binding; series mostly up to 114 µM; activity change, negative = inhibition: at the top concentration
Procedure, shortened: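 AlphaScreen: HP1-beta (50 nM) preformed 30 min with biotin-H3(1-18)K9me3 peptide (50 nM) in PBS pH 7.4, 0.01% Tween-20. Compound added for 30 min at RT, then streptavidin donor/nickel chelate acceptor beads (10 ug/mL) for 30 min.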
Potency means the concentration at half of the fitted maximal effect; tags describe the fitted curve by direction and shape.

Question: Nc1c(C(=O)Nc2ccccc2)sc2nc3c(c(-c4ccco4)c12)CCC3 was tested. Which Potency did it give?
Answer: inconclusive: 8.91 µM [inhibitor, single point]

Question: Which Potency does the source give for COc1ccc(OC)c(NC(=O)c2c(NCc3ccc(C)o3)sc3c2CCC(C)C3)c1 (configuration not stated) here?
Answer: inconclusive: 50.1 µM [inhibitor, partial curve, poor fit]

Question: How did the “activity change, negative = inhibition” value turn out when O=c1cc(CN2CCN(c3ccccn3)CC2)nc2sccn12 was run?
Answer: inactive: 6.48%

Question: FC(F)Oc1ccc(-c2csc(NNC3=NCCCCC3)n2)cc1 was tested. Which Potency did it give?
Answer: inconclusive: 10 µM [inhibitor, full curve]

Question: c1ccc2[nH]c(SCc3cn4ccccc4n3)nc2c1 was tested. Which “activity change, negative = inhibition” value did it give?
Answer: inactive: 23.7%

Question: How did the Potency turn out when Cc1[nH]c(N)nc(=S)c1CCCNc1ccccc1 was run?
Answer: inconclusive: 50.1 µM [inhibitor, partial curve]

Question: O=[N+]([O-])c1ccc(Cl)cc1N1CCCCC1 was tested. Which Potency did it give?
Answer: inconclusive: 25.1 µM [inhibitor, partial curve]

Question: For CC1CCCN(S(=O)(=O)c2ccc(NC(=O)c3nc(SC(C)C)ncc3Cl)cc2)C1 (configuration not stated), which “activity change, negative = inhibition” value is on record?
Answer: inactive: 6.43%

Question: How did the Potency turn out when COC(=O)c1ccccc1-c1ccc(/C=C2\C(=O)N(c3ccccc3)N=C2c2ccccc2)o1 was run?
Answer: active: 1.41 µM

Question: With S=c1nc(C2COc3ccccc3O2)[nH][nH]1 (configuration not stated) as the molecule, how does the “activity change, negative = inhibition” value read?
Answer: inactive: 8.24%

Question: How did the Potency turn out when Cc1ccc(SCCOCCN2CCc3ccccc3C2)cc1 was run?
Answer: inconclusive: 35.5 µM [inhibitor, partial curve, poor fit]

Question: Which Potency does the source give for COc1cc(/C=C(\C#N)c2nc3ccc(C)cc3[nH]2)cc([N+](=O)[O-])c1O here?
Answer: active: 35.5 µM

Question: O=C(O)COc1ccc(-c2nccc(-c3ccccn3)n2)cc1 was tested. Which Potency did it give?
Answer: inconclusive: 12.6 µM [inhibitor, single point]

Question: Which Potency does the source give for CCN(CC)c1ccc(NC(=O)c2cnn(CC)c2)cc1 here?
Answer: inconclusive: 56.2 µM [inhibitor, single point]

Question: CCCc1ccc(-c2c(C)sc(NC(=O)c3ccnn3C)c2C#N)cc1 was tested. Which Potency did it give?
Answer: inconclusive: 7.08 µM [inhibitor, single point]

Question: Which “activity change, negative = inhibition” value does the source give for CN(Cc1ccccc1)C(=O)c1ccc(NC(=O)Cc2cccc(NC(=O)C3CCN(C(=O)C4CCCC4)CC3)c2)cc1 here?
Answer: inactive: 33.4%

Question: C=CCc1ccccc1OCC(O)CN1CCN(c2ccc(C)cc2)CC1 (configuration not stated) was tested. Which Potency did it give?
Answer: inconclusive: 15.8 µM [inhibitor, full curve]

Question: How did the Potency turn out when O=C(O)CSc1nnc(-c2cccc(S(=O)(=O)N3CCCCC3)c2)o1 was run?
Answer: inconclusive: 89.1 µM [inhibitor, single point]

Question: With COc1ccc(NC(=S)NCC2CCN(c3ccc(OC)cc3)C2)cc1 (configuration not stated) as the molecule, how does the Potency read?
Answer: active: 25.1 µM

Question: Which Potency does the source give for O=C(NCc1ccco1)c1cnn2c1NC(c1ccc(Br)cc1)CC2C(F)(F)F (configuration not stated) here?
Answer: inconclusive: 7.08 µM [inhibitor, full curve]

Question: Which Potency does the source give for COc1ccccc1Nc1ccc(NC(=O)c2cccc([N+](=O)[O-])c2C)cc1 here?
Answer: inconclusive: 12.6 µM [inhibitor, full curve]

Question: Nc1ccc(-c2cnc(N)c(C(=O)c3cccnc3)n2)cn1 was tested. Which “activity change, negative = inhibition” value did it give?
Answer: inactive: 33.5%

Question: Cc1c(CCCN)c2ccccc2n1Cc1ccccc1 was tested. Which Potency did it give?
Answer: inconclusive: 15.8 µM [inhibitor, full curve]

Question: With CCCOC1(NC(=O)c2ccccc2)C(C)=CC(=O)C=C1C as the molecule, how does the Potency read?
Answer: inconclusive: 17.8 µM [inhibitor, full curve]

Question: With CC(=O)N(C)c1nnc(-c2ccccn2)s1 as the molecule, how does the “activity change, negative = inhibition” value read?
Answer: inactive: 42.5%

Question: Which Potency does the source give for Cn1c(/C(C#N)=C/c2cccc(O)c2)nc2ccccc21 here?
Answer: inconclusive: 28.2 µM [inhibitor, single point]

Question: With COc1cccc(OC)c1C(=O)NC(=S)NNC(=O)[C@H]1C[C@@H]1c1ccccc1 as the molecule, how does the “activity change, negative = inhibition” value read?
Answer: inactive: 64.3%

Question: Cc1ccc(S(=O)(=O)N(C)c2ccc(C(=O)NCc3ccccc3F)cc2)cc1 was tested. Which “activity change, negative = inhibition” value did it give?
Answer: inactive: 25.3%

Question: COc1ccc(S(=O)(=O)N2CCOCC2)cc1NC(=O)CCOc1ccc(C(C)(C)C)cc1 was tested. Which “activity change, negative = inhibition” value did it give?
Answer: inactive: 4.88%

Question: For CCOC(=O)N/N=C/c1cc(C)n(-c2cccc3ccccc23)c1C, which Potency is on record?
Answer: inconclusive: 70.8 µM [inhibitor, partial curve]

Question: With N/C(=N\NC(=O)c1cccc(F)c1)c1cc2ccccc2oc1=O as the molecule, how does the Potency read?
Answer: inconclusive: 70.8 µM [inhibitor, partial curve]

Question: O=C(Nc1nnc(CCN2CCCCC2)s1)c1ccccc1Cl was tested. Which “activity change, negative = inhibition” value did it give?
Answer: inactive: 35.8%

Question: How did the “activity change, negative = inhibition” value turn out when CCOC12NC(=O)CC(=O)N1C(c1ccccc1)=CS2 (configuration not stated) was run?
Answer: inactive: 12.5%

Question: With COc1ccc(N2CCN(c3cc(C)c4cccc(C)c4n3)CC2)cc1 as the molecule, how does the Potency read?
Answer: inconclusive: 44.7 µM [inhibitor, partial curve]

Question: For Cc1onc(-c2ccccc2)c1C(=O)Nc1sc2c(c1C#N)CCC2, which Potency is on record?
Answer: inconclusive: 35.5 µM [inhibitor, partial curve]

Question: S=c1[nH]nc(COc2ccccc2)n1-c1ccc(Cl)cc1 was tested. Which “activity change, negative = inhibition” value did it give?
Answer: inactive: 22.2%

Question: How did the Potency turn out when CC(C)CCNc1nc(N2CCCC2)c2c(c1C#N)CCN(C)C2 was run?
Answer: inconclusive: 15.8 µM [inhibitor, full curve]

Question: Which Potency does the source give for CCCCOCCCNCC(=O)Nc1ccc(S(N)(=O)=O)cc1 here?
Answer: inconclusive: 89.1 µM [inhibitor, single point]

Question: Which Potency does the source give for CCOc1cc(CNc2ccc(O)cc2)cc(Cl)c1OCc1ccccc1 here?
Answer: active: 35.5 µM

Question: For COc1ccccc1Nc1ccc2c(O)cc(S(=O)(=O)O)cc2c1, which Potency is on record?
Answer: active: 22.4 µM

Question: Which Potency does the source give for Cc1nn(-c2nnc(NC3CCCCC3)nn2)c(C)c1Br here?
Answer: inconclusive: 50.1 µM [inhibitor, partial curve]

Question: Which Potency does the source give for COc1cc(NCCCCCCN)c2ncccc2c1OC here?
Answer: inconclusive: 50.1 µM [inhibitor, partial curve, poor fit]

Question: For Cn1c(N)c(C(=O)Nc2ccccc2F)sc1=S, which Potency is on record?
Answer: inconclusive: 39.8 µM [inhibitor, partial curve, poor fit]

Question: For Nc1c(C(=O)NCC2CCCO2)sc2nc3c(c(-c4ccco4)c12)CC/C3=C\c1ccco1 (configuration not stated), which Potency is on record?
Answer: inconclusive: 3.55 µM [inhibitor, full curve, poor fit]

Question: How did the “activity change, negative = inhibition” value turn out when O=C(c1c[nH]c(C(=O)C(Cl)(Cl)Cl)c1)c1ccc(F)cc1Cl was run?
Answer: inactive: 7.03%

Question: For COc1ccc(NC(C)C(=O)N/N=C/c2cc(Br)ccc2OC)cc1 (configuration not stated), which Potency is on record?
Answer: inconclusive: 39.8 µM [inhibitor, partial curve]

Question: How did the Potency turn out when Cc1ccc(OCCOCCN(C)C)c(Cl)c1 was run?
Answer: inconclusive: 14.1 µM [inhibitor, partial curve, poor fit]

Question: With O=C(O)c1cccc(NC(=S)N/N=C/c2ccccc2OCc2ccc(Br)cc2)c1 as the molecule, how does the Potency read?
Answer: inconclusive: 20 µM [inhibitor, full curve]

Question: For COc1cc(CN2CCC(Cc3ccccc3)CC2)c([N+](=O)[O-])cc1OC, which Potency is on record?
Answer: inconclusive: 79.4 µM [inhibitor, single point]

Question: NS(=O)(=O)c1ccc(NC(=O)CCCCCN2C(=O)c3ccccc3C2=O)cc1 was tested. Which “activity change, negative = inhibition” value did it give?
Answer: inactive: 22.8%

Question: For COc1cc(/C=C2/C(=O)NN(c3ccc(Cl)cc3)C2=O)cc(OC)c1O, which Potency is on record?
Answer: inconclusive: 39.8 µM [inhibitor, partial curve]

Question: For CN(C)c1ccc(C=c2c3ccccc3n3c2c2c([n+]3C)CCCC2)cc1, which Potency is on record?
Answer: inconclusive: 15.8 µM [inhibitor, full curve, poor fit]

Question: CCC(C)(C(=O)NC1CCCCC1)N(Cc1cccs1)C(=O)c1ccccn1 (configuration not stated) was tested. Which Potency did it give?
Answer: inconclusive: 89.1 µM [inhibitor, single point]

Question: For CCN(CC)c1ccc(/C=N/NS(=O)(=O)c2ccc(C)c([N+](=O)[O-])c2)cc1, which Potency is on record?
Answer: inconclusive: 50.1 µM [inhibitor, partial curve]

Question: For COc1ccccc1COCC(O)CNCC1(N2CCCCC2)CCCCC1 (configuration not stated), which Potency is on record?
Answer: inconclusive: 15.8 µM [inhibitor, full curve]

Question: How did the “activity change, negative = inhibition” value turn out when Cc1ccc(C)c(NC(=O)CN(C)C(=O)c2cc3ccccc3oc2=O)c1 was run?
Answer: inactive: 35.1%

Question: O=C(Oc1cccc(C(=S)N2CCOCC2)c1)c1ccccc1 was tested. Which Potency did it give?
Answer: inconclusive: 50.1 µM [inhibitor, partial curve]

Question: CC1CN(C2CCN(C(=O)c3ccccc3Cl)CC2)CC(C)O1 (configuration not stated) was tested. Which Potency did it give?
Answer: inconclusive: 63.1 µM [inhibitor, single point]

Question: How did the Potency turn out when CN1CCN(C(=S)c2cn(CCOc3ccccc3F)c3ccccc23)CC1 was run?
Answer: inconclusive: 79.4 µM [inhibitor, partial curve]

Question: Which Potency does the source give for CC(C)C(=O)OCC(=O)Nc1ccc(N=Nc2ccccc2)cc1 here?
Answer: inconclusive: 50.1 µM [inhibitor, partial curve, poor fit]

Question: How did the Potency turn out when COc1ccc(/C=C/C(=O)N2CCN(c3ccccn3)CC2)c2ccccc12 was run?
Answer: inconclusive: 89.1 µM [inhibitor, single point]

Question: With COc1ccc2c(CN3CCN(S(=O)(=O)c4cccs4)CC3)cc(=O)oc2c1 as the molecule, how does the Potency read?
Answer: inconclusive: 35.5 µM [inhibitor, single point]

Question: Which Potency does the source give for NS(=O)(=O)c1cc(C(=O)NC2CCSc3ccccc32)ccc1Cl (configuration not stated) here?
Answer: active: 2.24 µM

Question: Which Potency does the source give for O=[N+]([O-])c1cccc(C([O-])=C(C(=S)Nc2cccc3ccccc23)[n+]2ccccc2)c1 here?
Answer: inconclusive: 28.2 µM [inhibitor, partial curve, poor fit]

Question: For CN(C)c1ccc2cc(S(=O)(=O)O)cc(O)c2c1, which Potency is on record?
Answer: inconclusive: 50.1 µM [inhibitor, partial curve]

Question: Which Potency does the source give for O=C(/C=C/c1ccc(-c2ccccc2)o1)c1ccccc1 here?
Answer: inconclusive: 70.8 µM [inhibitor, single point]

Question: Nc1nnn(CC(=O)N/N=C/c2ccc(Cl)cc2Cl)n1 was tested. Which “activity change, negative = inhibition” value did it give?
Answer: inactive: 37.3%

Question: COc1ccc(-c2nnc(NC(=O)C3CC3)o2)cc1 was tested. Which “activity change, negative = inhibition” value did it give?
Answer: inactive: 40.6%

Question: Which “activity change, negative = inhibition” value does the source give for Cc1ccc(S(=O)(=O)N2CCOCC2)cc1NC(=O)CNC1CCCC1 here?
Answer: inactive: -25.4%

Question: For N#Cc1ccc(COC(=O)c2cc(=O)c3ccccc3o2)cc1, which “activity change, negative = inhibition” value is on record?
Answer: inactive: 17.2%

Question: With O=C(Cn1ccc2ccccc2c1=O)NCC(=O)Nc1ccc(F)cc1F as the molecule, how does the “activity change, negative = inhibition” value read?
Answer: inactive: 7.13%

Question: For Oc1cc2c(cc1O)C(c1ccccc1)CNCC2 (configuration not stated), which Potency is on record?
Answer: inconclusive: 15.8 µM [inhibitor, full curve, poor fit]
